No constants are given. Whether binding was seen depends on the method and setting. In cells and extracts the contact can be indirect. Some entries that bind do so weakly or less than the wild type.
Key:
SPN-A566V (human) = SPN-A566V (human) (UniProt Q96SB3); test: co-IP; anti-SPN (or anti-IgG control) on protein A Sepharose, 1 mg of T47D or MDA-MB-468 cell extract overnight, washed with PBS-BSA and IGEPAL 0.2%; blots for PP1α, PP1β, PP1γ, P-pRB, P-p107, P-p130
[1] = molecular target: SPINOPHILIN (wild-type, endogenous) (human (endogenous in T47D and MDA-MB-468)) (UniProt Q96SB3); test: as above

Sequences of proteins named here, by UniProt entry; tags and fusion partners are left off. A change or cut given only in a name is not applied to a line headed by its entry.
UniProt Q96SB3: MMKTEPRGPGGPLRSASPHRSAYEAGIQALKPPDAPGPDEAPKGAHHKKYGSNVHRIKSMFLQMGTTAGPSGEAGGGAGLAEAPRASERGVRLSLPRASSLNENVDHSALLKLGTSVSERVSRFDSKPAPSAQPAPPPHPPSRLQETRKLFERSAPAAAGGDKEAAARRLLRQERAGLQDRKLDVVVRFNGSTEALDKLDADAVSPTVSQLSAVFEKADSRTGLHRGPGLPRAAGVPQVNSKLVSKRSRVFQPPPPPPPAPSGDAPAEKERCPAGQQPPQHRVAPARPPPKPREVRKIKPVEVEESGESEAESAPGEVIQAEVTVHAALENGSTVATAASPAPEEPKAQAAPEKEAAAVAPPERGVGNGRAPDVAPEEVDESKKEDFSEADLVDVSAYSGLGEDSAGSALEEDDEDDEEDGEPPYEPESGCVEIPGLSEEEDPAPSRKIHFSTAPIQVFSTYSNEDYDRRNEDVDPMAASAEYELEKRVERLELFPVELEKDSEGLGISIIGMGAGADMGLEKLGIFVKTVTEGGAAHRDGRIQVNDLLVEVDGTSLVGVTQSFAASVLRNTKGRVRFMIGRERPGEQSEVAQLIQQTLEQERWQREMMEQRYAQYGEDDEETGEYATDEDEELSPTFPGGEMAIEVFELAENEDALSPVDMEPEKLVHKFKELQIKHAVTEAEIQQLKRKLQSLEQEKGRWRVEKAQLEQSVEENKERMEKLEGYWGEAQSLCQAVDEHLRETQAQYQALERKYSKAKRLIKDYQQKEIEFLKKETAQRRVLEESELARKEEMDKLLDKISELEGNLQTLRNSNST
UniProt P62140: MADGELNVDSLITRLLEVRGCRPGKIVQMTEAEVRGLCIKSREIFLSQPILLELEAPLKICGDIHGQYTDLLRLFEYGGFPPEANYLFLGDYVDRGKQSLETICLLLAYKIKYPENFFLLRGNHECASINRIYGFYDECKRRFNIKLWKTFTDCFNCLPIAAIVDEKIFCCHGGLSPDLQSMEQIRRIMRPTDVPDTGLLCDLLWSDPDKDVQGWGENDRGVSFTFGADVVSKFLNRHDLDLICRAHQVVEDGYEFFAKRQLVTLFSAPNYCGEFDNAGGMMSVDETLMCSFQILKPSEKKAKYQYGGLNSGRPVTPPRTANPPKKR
UniProt Q08999: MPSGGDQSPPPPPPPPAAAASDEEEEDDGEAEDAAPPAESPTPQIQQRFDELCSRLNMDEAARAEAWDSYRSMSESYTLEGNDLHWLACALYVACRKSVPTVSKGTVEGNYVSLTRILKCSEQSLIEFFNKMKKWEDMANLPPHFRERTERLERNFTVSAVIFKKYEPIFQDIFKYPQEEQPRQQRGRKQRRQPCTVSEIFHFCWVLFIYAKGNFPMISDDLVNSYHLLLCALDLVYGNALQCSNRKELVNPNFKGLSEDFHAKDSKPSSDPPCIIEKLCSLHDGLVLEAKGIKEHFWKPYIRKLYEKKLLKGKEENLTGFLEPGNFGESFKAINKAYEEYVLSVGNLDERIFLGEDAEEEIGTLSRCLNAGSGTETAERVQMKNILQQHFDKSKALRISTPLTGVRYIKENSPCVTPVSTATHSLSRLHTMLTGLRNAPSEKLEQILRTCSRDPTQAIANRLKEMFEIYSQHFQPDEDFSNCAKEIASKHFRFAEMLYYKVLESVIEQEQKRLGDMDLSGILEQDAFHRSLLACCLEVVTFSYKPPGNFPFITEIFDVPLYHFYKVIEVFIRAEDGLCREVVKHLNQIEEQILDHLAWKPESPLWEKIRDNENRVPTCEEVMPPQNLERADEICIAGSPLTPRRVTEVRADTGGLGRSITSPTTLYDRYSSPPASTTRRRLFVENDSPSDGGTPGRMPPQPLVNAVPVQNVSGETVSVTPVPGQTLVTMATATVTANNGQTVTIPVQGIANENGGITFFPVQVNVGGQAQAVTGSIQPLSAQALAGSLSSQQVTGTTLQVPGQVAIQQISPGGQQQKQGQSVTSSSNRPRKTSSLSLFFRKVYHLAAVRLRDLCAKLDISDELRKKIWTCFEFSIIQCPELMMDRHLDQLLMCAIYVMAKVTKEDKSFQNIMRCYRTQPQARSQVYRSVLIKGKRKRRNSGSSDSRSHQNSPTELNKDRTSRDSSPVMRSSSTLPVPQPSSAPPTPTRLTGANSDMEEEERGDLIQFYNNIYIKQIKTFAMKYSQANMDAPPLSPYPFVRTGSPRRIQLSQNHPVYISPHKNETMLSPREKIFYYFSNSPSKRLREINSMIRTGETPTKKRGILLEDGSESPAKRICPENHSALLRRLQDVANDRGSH
UniProt P36873: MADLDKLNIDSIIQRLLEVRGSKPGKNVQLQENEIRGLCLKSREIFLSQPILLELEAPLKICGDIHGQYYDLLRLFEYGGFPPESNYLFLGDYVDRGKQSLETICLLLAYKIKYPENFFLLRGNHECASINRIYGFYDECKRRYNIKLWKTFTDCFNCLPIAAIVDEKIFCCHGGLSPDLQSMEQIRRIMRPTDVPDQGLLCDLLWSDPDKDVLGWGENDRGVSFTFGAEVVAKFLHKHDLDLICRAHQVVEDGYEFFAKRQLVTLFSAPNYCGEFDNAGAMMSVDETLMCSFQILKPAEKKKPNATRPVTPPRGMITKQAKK
UniProt P62136: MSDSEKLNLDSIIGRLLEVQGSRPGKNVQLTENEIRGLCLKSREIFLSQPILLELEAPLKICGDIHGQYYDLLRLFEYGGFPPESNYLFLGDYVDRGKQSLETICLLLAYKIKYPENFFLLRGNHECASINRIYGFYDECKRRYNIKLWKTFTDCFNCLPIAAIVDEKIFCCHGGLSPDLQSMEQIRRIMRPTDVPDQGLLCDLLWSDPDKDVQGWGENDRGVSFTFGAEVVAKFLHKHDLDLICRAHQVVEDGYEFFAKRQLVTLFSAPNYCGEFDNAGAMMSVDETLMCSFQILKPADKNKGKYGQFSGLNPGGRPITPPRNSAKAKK

binding (SPN-A566V (human)) | binding [1] | Substance
no binding | – | PP1β (from UniProt P62140 1-327) (enzyme)
binds weakly | binds | P-p130 (Ser672) (from UniProt Q08999 1-1139)
binds | – | PP1γ (from UniProt P36873 1-323) (enzyme)
binds | – | PP1α (from UniProt P62136 1-330) (enzyme)

Reference: paper PMC7847670
